Data as given in article PMC4336329 (PLoS ONE, 2015).
The campaign covered roughly 310,000 compounds. About 2,200 (0.71%) showed an effect of 50% or more. Effects have a minus sign here. The list shows a part of the results.

Target: human ether-à-go-go-related gene (hERG) potassium channel (human, UniProt Q12809)
Assay: primary screen, population patch clamp on CHO cells stably expressing hERG

Chain of human ether-à-go-go-related gene (hERG) potassium channel (Q12809 whole entry, looked up): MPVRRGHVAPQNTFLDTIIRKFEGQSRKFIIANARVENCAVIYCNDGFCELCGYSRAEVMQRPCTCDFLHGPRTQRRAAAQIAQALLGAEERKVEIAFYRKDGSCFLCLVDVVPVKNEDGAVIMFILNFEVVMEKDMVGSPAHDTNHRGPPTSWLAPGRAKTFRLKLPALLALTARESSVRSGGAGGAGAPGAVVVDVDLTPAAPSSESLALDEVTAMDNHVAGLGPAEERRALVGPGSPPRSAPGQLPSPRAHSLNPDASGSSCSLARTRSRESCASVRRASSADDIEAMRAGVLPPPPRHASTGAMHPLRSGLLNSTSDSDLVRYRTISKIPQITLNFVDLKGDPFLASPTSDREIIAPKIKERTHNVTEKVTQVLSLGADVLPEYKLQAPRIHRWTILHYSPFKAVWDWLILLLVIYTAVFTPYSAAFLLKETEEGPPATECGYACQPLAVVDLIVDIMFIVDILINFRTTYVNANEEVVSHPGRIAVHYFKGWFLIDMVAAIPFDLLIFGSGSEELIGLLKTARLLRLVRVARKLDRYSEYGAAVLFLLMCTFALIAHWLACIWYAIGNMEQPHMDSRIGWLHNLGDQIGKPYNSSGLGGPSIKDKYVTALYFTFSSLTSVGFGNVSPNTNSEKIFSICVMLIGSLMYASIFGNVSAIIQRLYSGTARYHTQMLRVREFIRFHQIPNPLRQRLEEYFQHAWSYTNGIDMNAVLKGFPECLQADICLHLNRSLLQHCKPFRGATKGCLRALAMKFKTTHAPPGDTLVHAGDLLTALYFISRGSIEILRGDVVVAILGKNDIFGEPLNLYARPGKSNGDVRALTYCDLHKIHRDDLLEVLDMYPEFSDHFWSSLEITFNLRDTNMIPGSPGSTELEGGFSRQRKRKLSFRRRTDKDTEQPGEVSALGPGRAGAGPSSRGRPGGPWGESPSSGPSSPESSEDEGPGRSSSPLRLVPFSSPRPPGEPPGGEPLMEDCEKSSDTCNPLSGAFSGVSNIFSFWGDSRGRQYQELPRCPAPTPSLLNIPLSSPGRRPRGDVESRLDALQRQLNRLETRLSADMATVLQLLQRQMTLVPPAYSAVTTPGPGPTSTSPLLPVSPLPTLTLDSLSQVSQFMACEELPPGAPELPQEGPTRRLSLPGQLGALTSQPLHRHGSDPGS

Row | Compound | hERG current change (%, negative = inhibition) at 1uM [%]
1 | CCc1ccc(C(=O)OCC(=O)N2CCCCCC2)cc1 | 11.4
2 | CC1Oc2ccccc2N(Cc2ccc(F)cc2)C1=O (centres unmarked) | 4.62
3 | O=C(NCc1nc2ccccc2[nH]1)c1cc2ccccc2oc1=O | 13.1
4 | NS(=O)(=O)c1cc(C(=O)OCC(=O)NNC(=O)c2ccccc2)ccc1Cl | 11.7
5 | CC(=O)c1ccc(-n2nnnc2SCC(=O)NNC(=O)c2ccco2)cc1 | 16.6
6 | COc1ccc(C2(c3ccc(OC)cc3)NC(=O)N(CC(=O)Nc3ccccc3C)C2=O)cc1 | 3.86
7 | COc1cc(C(=S)N2CCOCC2)cc(OC)c1OC(=O)c1cc([N+](=O)[O-])cc([N+](=O)[O-])c1 | 13.3
8 | CC(NC(=O)c1cccnc1)C(=O)[O-].[Na+] (centres unmarked) | 16.6
9 | C=CCSc1nnc2c(n1)OC(c1ccccn1)N(C(C)=O)c1ccccc1-2 (centres unmarked) | -2.32
10 | c1ccc(-c2cn(CC3CCCCC3)nn2)cc1 | 11
11 | Cc1ccc(NC(=O)CC2S/C(=N/c3nccs3)N(C)C2=O)c(C)c1 (centres unmarked) | -1.65
12 | O=C(NCc1cccs1)Nc1ccc2c(c1)OCO2 | 2.53
13 | COc1ccc(/C=C/C(=O)C2CC2)cc1COc1c(C)cccc1C | 6.77
14 | Cc1sc2nc(COC(=O)c3ccc(Cl)c(N)c3)[nH]c(=O)c2c1C | 7.02
15 | Cc1cc(C)cc(N(CC(=O)NC2CCCCC2)C(=O)c2ccc(C)s2)c1 | 5.92
16 | CC1(C(=O)O)CCC(C(=O)N2CCCCC2)C1(C)C (centres unmarked) | 12
17 | CCOC(=O)N1CCN(CCC(=O)Nc2cc(OC)cc(OC)c2)CC1.Cl | 6.92
18 | CC1=C(C(=O)OCCBr)C(c2cccc3ccccc23)NC(=O)N1 (centres unmarked) | 12.9
19 | CN(c1ccccc1)S(=O)(=O)c1cccc(NC(=O)CSc2nncs2)c1 | -4.56
20 | Cc1ccc([N+](=O)[O-])c(OCC(=O)OCC(=O)c2ccccc2)c1 | 10
21 | CCOCCOC(=O)C1=C(C)NC(=O)NC1c1ccc2c(c1)OCO2 (centres unmarked) | 16
22 | O=C(NCCOc1ccc2ccccc2c1)c1cncc(Br)c1 | 10.4

Row | Compound | hERG current change (%, negative = inhibition) at 1uM [%]
23 | O=C(N/N=C/c1cccc(Br)c1)c1ccc(Br)cc1 | 5.11
24 | Cc1cccc(NC(=O)CSc2nnc(CSc3nc(C)cc(C)n3)n2Cc2ccco2)c1 | 14.1
25 | Cc1ccc2oc(C(=O)N(C)Cc3ccc(C)o3)c(C)c2c1 | 15.4
26 | CNC(=S)N(C1=NCC(c2ccc([N+](=O)[O-])cc2)S1)c1ccccc1 (centres unmarked) | -2.38
27 | O=C(Cc1ccc(Br)cc1)Nc1ccccc1N1CCCC1 | 12.8
28 | COC(=O)C1=C(c2cccc(OC)c2OC)C[C@@H]2CC[C@H]1N2C(=O)N1CCC(O)CC1 | 25.2
29 | CCN1CCc2c(sc(NC(=O)c3ccc(S(=O)(=O)N4CCOCC4)cc3)c2C(N)=O)C1 | 7.87
30 | NNc1nc2c(F)cc(F)cc2s1 | 19.6
31 | C/C(=N/NC(=O)CNC(=O)c1ccncc1)c1ccc(Cl)cc1 | 3.5
32 | COc1ccc(C(=O)NC(=S)NCc2ccco2)cc1Br | 12.6
33 | CCC(=O)Nc1ccc(C(=O)Nc2ccc(Br)cc2F)cc1 | 19.3
34 | Cc1ccc(S(=O)(=O)N2CCOCC2)cc1NC(=O)CN(C)C1CCS(=O)(=O)C1 (centres unmarked) | 16.9
35 | Cc1csc(NC(=O)CSc2nnc(-c3cccnc3)o2)n1 | 1.85
36 | CCOC(=O)C(CC)Sc1nc(N)c(NC(=O)c2ccc(OC)c(OC)c2)c(=O)[nH]1 (centres unmarked) | -6.35
37 | COc1ccc(C(C)(C)C)cc1NC(=O)COC(=O)C(C)C | 3.53
38 | COc1cc(C(=O)NCC(=O)OCC(=O)c2cccc3ccccc23)cc(OC)c1OC | 6.1
39 | CCOC(=O)C[C@H]1c2cc(F)ccc2S(=O)(=O)N1c1ccccc1 | 13.1
40 | CCCc1[nH]nc2c1C(Cc1ccccc1)C(C#N)=C(N)O2 (centres unmarked) | 7.37
41 | COc1ccc(N2CCN(C(=O)NC3CC(=O)N(c4ccc(OC)cc4)C3)CC2)cc1 (centres unmarked) | 3.18
42 | NS(=O)(=O)c1ccc(NC(=O)COC(=O)c2cn(-c3ccccc3)nc2-c2ccccc2)cc1 | 9.47
43 | COc1cccc(C2C3=C(N=c4s/c(=C\c5ccccc5O)c(=O)n42)c2ccccc2CC3)c1OC (centres unmarked) | 11.3
44 | O=C(NC(=S)Nc1nc(-c2ccccc2)cs1)c1ccco1 | -6.49
